# Assay results: article PMC9911399, “Two distinct binding modes provide the RNA-binding protein RbFox with extraordinary sequence specificity”
# Residue numbers refer to the chain shown, from its start. Some of the results follow.
# B1: AGCCAUC (DNA:RNA)
# RNA: GGGAGACCGGAAUUCAGAUUGUCCAGCCAUCUUAAAUCCCGUCGUAGCCACCA
# DNA 1: CAATCTGAATTCCGGTCTCCC
# DNA 2: TGGTGGCTACGACGGGATT
# B2: AGCUCUG (DNA:RNA)
# RNA: B1 RNA with C28U, A29C, C31G
# DNA 1: CAATCTGAATTCCGGTCTCCC
# DNA 2: TGGTGGCTACGACGGGATT
# B3: UAACGAA (DNA:RNA)
# RNA: B1 RNA with A25U, G26A, C27A, A29G, U30A, C31A
# DNA 1: CAATCTGAATTCCGGTCTCCC
# DNA 2: TGGTGGCTACGACGGGATT
# B4: AUUCCUC (DNA:RNA)
# RNA: B1 RNA with G26U, C27U, A29C
# DNA 1: CAATCTGAATTCCGGTCTCCC
# DNA 2: TGGTGGCTACGACGGGATT
# B5: CCCAUCU (DNA:RNA)
# RNA: B1 RNA with A25C, G26C, C28A, A29U, U30C, C31U
# DNA 1: CAATCTGAATTCCGGTCTCCC
# DNA 2: TGGTGGCTACGACGGGATT
# B6: AAUAUUG (DNA:RNA)
# RNA: B1 RNA with G26A, C27U, C28A, A29U, C31G
# DNA 1: CAATCTGAATTCCGGTCTCCC
# DNA 2: TGGTGGCTACGACGGGATT
# B7: GCCCAGA (DNA:RNA)
# RNA: B1 RNA with A25G, G26C, U30G, C31A
# DNA 1: CAATCTGAATTCCGGTCTCCC
# DNA 2: TGGTGGCTACGACGGGATT
# B8: UCGACCA (DNA:RNA)
# RNA: GGGAGACCGGAAUUCAGAUUGUCCUCGACCAUUAAAUCCCGUCGUAGCCACCA
# DNA 1: CAATCTGAATTCCGGTCTCCC
# DNA 2: TGGTGGCTACGACGGGATT
# B9: CCAAGUA (DNA:RNA)
# RNA: B8 RNA with U25C, G27A, C29G, C30U
# DNA 1: CAATCTGAATTCCGGTCTCCC
# DNA 2: TGGTGGCTACGACGGGATT
# B10: UGUCUAU (DNA:RNA)
# RNA: B1 RNA with A25U, C27U, A29U, U30A, C31U
# DNA 1: CAATCTGAATTCCGGTCTCCC
# DNA 2: TGGTGGCTACGACGGGATT
# B11: UCCUAAU (DNA:RNA)
# RNA: B1 RNA with A25U, G26C, C28U, U30A, C31U
# DNA 1: CAATCTGAATTCCGGTCTCCC
# DNA 2: TGGTGGCTACGACGGGATT
# B12: GUAGAUG (DNA:RNA)
# RNA: B1 RNA with A25G, G26U, C27A, C28G, C31G
# DNA 1: CAATCTGAATTCCGGTCTCCC
# DNA 2: TGGTGGCTACGACGGGATT
# B13: CCGAUAC (DNA:RNA)
# RNA: B8 RNA with U25C, C29U, C30A, A31C
# DNA 1: CAATCTGAATTCCGGTCTCCC
# DNA 2: TGGTGGCTACGACGGGATT
# B14: ACAAGCA (DNA:RNA)
# RNA: B8 RNA with U25A, G27A, C29G
# DNA 1: CAATCTGAATTCCGGTCTCCC
# DNA 2: TGGTGGCTACGACGGGATT
# B15: AGCCCUC (DNA:RNA)
# RNA: B1 RNA with A29C
# DNA 1: CAATCTGAATTCCGGTCTCCC
# DNA 2: TGGTGGCTACGACGGGATT
# B16: UGUGCGG (DNA:RNA)
# RNA: B8 RNA with C26G, G27U, A28G, C30G, A31G
# DNA 1: CAATCTGAATTCCGGTCTCCC
# DNA 2: TGGTGGCTACGACGGGATT
# B17: GAUAGCG (DNA:RNA)
# RNA: B8 RNA with U25G, C26A, G27U, C29G, A31G
# DNA 1: CAATCTGAATTCCGGTCTCCC
# DNA 2: TGGTGGCTACGACGGGATT
# B18: GAGAUGA (DNA:RNA)
# RNA: B8 RNA with U25G, C26A, C29U, C30G
# DNA 1: CAATCTGAATTCCGGTCTCCC
# DNA 2: TGGTGGCTACGACGGGATT
# B19: ACUCCGA (DNA:RNA)
# RNA: B8 RNA with U25A, G27U, A28C, C30G
# DNA 1: CAATCTGAATTCCGGTCTCCC
# DNA 2: TGGTGGCTACGACGGGATT
# B20: AGGGUUA (DNA:RNA)
# RNA: B1 RNA with C27G, C28G, A29U, C31A
# DNA 1: CAATCTGAATTCCGGTCTCCC
# DNA 2: TGGTGGCTACGACGGGATT
# Biological target: T1, RBFOX1 RRM (Homo sapiens, UniProt Q9NWB1 109-208)
# T1 sequence: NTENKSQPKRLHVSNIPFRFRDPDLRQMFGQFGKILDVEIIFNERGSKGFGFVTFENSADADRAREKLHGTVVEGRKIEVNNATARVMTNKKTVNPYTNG
# Assay: EMSA; HiTS-Eq, 1 nM pool, 10 min; buffer printed only for the single-RNA assays: 10 mM Tris pH 7.5, 150 mM NaCl, 3.4 mM EDTA, 0.001% NP-40, 30 C
# Settings: tags: His6 N-terminal (pET28a); label: 5' 32P
# Summary of the method: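 Purified RbFox RRM, wild type or mutant, was incubated for 10 min in 50 µL with 1 nM of a 5′-radiolabelled RNA pool carrying 7 randomized nucleotides, whose flanks were annealed to DNA oligonucleotides, over a series of increasing protein concentrations. Unbound RNA was resolved on 8% native PAGE, cut out, reverse-transcribed, barcoded by PCR and sequenced on an Illumina HiSeq 2500. Relative association constants were derived from changes in read counts for each RNA species versus the control reaction and normalised to the cognate motif.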
row,Binder,binding signal
1,B1,0.0036 KA relative to UGCAUGU
2,B2,0.0163 KA relative to UGCAUGU
3,B3,0.00683 KA relative to UGCAUGU
4,B4,0.00325 KA relative to UGCAUGU
5,B5,0.000718 KA relative to UGCAUGU
6,B6,0.00294 KA relative to UGCAUGU
7,B7,0.0133 KA relative to UGCAUGU
8,B8,0.00125 KA relative to UGCAUGU
9,B9,0.00123 KA relative to UGCAUGU
10,B10,0.0104 KA relative to UGCAUGU
11,B11,0.00217 KA relative to UGCAUGU
12,B12,0.0126 KA relative to UGCAUGU
13,B13,0.00577 KA relative to UGCAUGU
14,B14,0.00399 KA relative to UGCAUGU
15,B15,0.00539 KA relative to UGCAUGU
16,B16,0.0217 KA relative to UGCAUGU
17,B17,0.0141 KA relative to UGCAUGU
18,B18,0.0163 KA relative to UGCAUGU
19,B19,0.00366 KA relative to UGCAUGU
20,B20,0.0155 KA relative to UGCAUGU
